The other results are listed elsewhere or left out. Repeats are few or missing, and single values can be far off.
Test system: RVH-421
Test: cell count relative to DMSO control; melanoma cells; higher = more viable cells
Details: library dose: low library concentration; 72 h
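Also: cell number obtained by counting DAPI-stained nuclei in high-throughput microscope images with image analysis software, screen run in 1,536-well plates.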

SMILES | cell count [%]
CC(=O)O[C@@]12CO[C@@H]1C[C@H](O)[C@@]1(C)C(=O)[C@H](O)C3=C(C)[C@@H](OC(=O)[C@H](O)[C@@H](NC(=O)OC(C)(C)C)c4ccccc4)C[C@@](O)([C@@H](OC(=O)c4ccccc4)[C@H]21)C3(C)C [Docetaxel] + CO[C@@H]1[C@H](N(C)C(=O)c2ccccc2)C[C@H]2O[C@]1(C)n1c3ccccc3c3c4c(c5c6ccccc6n2c5c31)C(=O)NC4 [Midostaurin] (first compound 0.0001 µM, partner dose 0.08 µM) | 54.7
Nc1nc(F)nc2c1ncn2[C@@H]1O[C@H](CO)[C@@H](O)[C@@H]1O [fludarabine] + COc1ccc2c(c1)CCC1C2CCC2(C)C(NCCCCCCN3C(=O)C=CC3=O)CCC12 [U73122] (first compound 0.2 µM, partner dose 0.4 µM) | 85.8
CC(=O)c1c(C)c2cnc(Nc3ccc(N4CCNCC4)cn3)nc2n(C2CCCC2)c1=O [palbociclib] + Cn1c(Nc2ccc(C(F)(F)F)cc2)nc2cc(Oc3ccnc(-c4ncc(C(F)(F)F)[nH]4)c3)ccc21 [CHIR265] (first compound 0.04 µM, partner dose 0.08 µM) | 58.4
Nc1ccn([C@@H]2O[C@H](CO)[C@@H](O)C2(F)F)c(=O)n1 [gemcitabine] + O=c1cc(-c2cccc3c2Sc2ccccc2S3)oc(N2CCOCC2)c1 [KU55933] (first compound 0.0004 µM, partner dose 1 µM) | 105
CC(=O)c1c(C)c2cnc(Nc3ccc(N4CCNCC4)cn3)nc2n(C2CCCC2)c1=O [palbociclib] + CO[C@@H]1[C@H](N(C)C(=O)c2ccccc2)C[C@H]2O[C@]1(C)n1c3ccccc3c3c4c(c5c6ccccc6n2c5c31)C(=O)NC4 [Midostaurin] (first compound 0.04 µM, partner dose 0.08 µM) | 87
Nc1ncn([C@H]2C[C@H](O)[C@@H](CO)O2)c(=O)n1 [decitabine] + CO[C@@H]1[C@H](N(C)C(=O)c2ccccc2)C[C@H]2O[C@]1(C)n1c3ccccc3c3c4c(c5c6ccccc6n2c5c31)C(=O)NC4 [Midostaurin] (first compound 0.1 µM, partner dose 0.08 µM) | 69.6
CC(=O)c1c(C)c2cnc(Nc3ccc(N4CCNCC4)cn3)nc2n(C2CCCC2)c1=O [palbociclib] + O=C(O)C(=O)Nc1sc2c(c1C(=O)O)CCNC2 [TCS401] (first compound 0.04 µM, partner dose 1.66667 µM) | 55.4
Nc1nc(F)nc2c1ncn2[C@@H]1O[C@H](CO)[C@@H](O)[C@@H]1O [fludarabine] + CN(C)S(=O)(=O)c1ccc2c(c1)/C(=C/c1cc3c([nH]1)CCCC3)C(=O)N2 [SU6656] (first compound 0.2 µM, partner dose 0.4 µM) | 100
Nc1nc(F)nc2c1ncn2[C@@H]1O[C@H](CO)[C@@H](O)[C@@H]1O [fludarabine] + Cc1ccc(NC(=O)c2cccc(N(C)C)c2)cc1NC(=O)c1ccc(O)cc1 [ZM336372] (first compound 0.2 µM, partner dose 2 µM) | 94.8
Nc1ncn([C@H]2C[C@H](O)[C@@H](CO)O2)c(=O)n1 [decitabine] + c1cc(-c2cnn3cc(-c4ccc(OCCN5CCCCC5)cc4)cnc23)ccn1 [Dorsomorphin] (first compound 0.1 µM, partner dose 0.4 µM) | 97.2
Nc1nc(F)nc2c1ncn2[C@@H]1O[C@H](CO)[C@@H](O)[C@@H]1O [fludarabine] + COc1cc2ncnc(Nc3ccc(Oc4ccccc4)cc3)c2cc1OC [SrcI1] (first compound 0.2 µM, partner dose 2 µM) | 114
Nc1ccn([C@@H]2O[C@H](CO)[C@@H](O)C2(F)F)c(=O)n1 [gemcitabine] + O=C(Nc1cccc(Cl)c1)Nc1ncc(CCNc2ncnc3ccsc23)s1 [SNS314] (first compound 0.0004 µM, partner dose 0.0008 µM) | 83.4
Nc1nc(F)nc2c1ncn2[C@@H]1O[C@H](CO)[C@@H](O)[C@@H]1O [fludarabine] + C#Cc1cccc(Nc2ncnc3cc(OCCOC)c(OCCOC)cc23)c1 [erlotinib] (first compound 0.2 µM, partner dose 0.8 µM) | 102
Nc1nc(F)nc2c1ncn2[C@@H]1O[C@H](CO)[C@@H](O)[C@@H]1O [fludarabine] + COc1cc(N2CCC(N3CCN(C)CC3)CC2)ccc1Nc1ncc(Cl)c(Nc2ccccc2S(=O)(=O)C(C)C)n1 [NVP-TAE684] (first compound 0.2 µM, partner dose 0.08 µM) | 119
CC(=O)c1c(C)c2cnc(Nc3ccc(N4CCNCC4)cn3)nc2n(C2CCCC2)c1=O [palbociclib] + C=CCn1c(=O)c2cnc(Nc3ccc(N4CCN(C)CC4)cc3)nc2n1-c1cccc(C(C)(C)O)n1 [MK1775] (first compound 0.04 µM, partner dose 0.02 µM) | 98
